Experimental data taken from the supplement of paper PMC10126150.
Sequences with one replicate were seen in a single cluster, so their values are uncertain.

Tested on: ATP
Assay: switch fluorescence ratio, 500 uM ATP over buffer (Cy3 cluster intensity, sum of 5 cycles each) (fold (ratio)); higher = stronger signal-on switching upon ATP binding; sequences stand for … in TCGTCGGCAGCGTCAGATGTGTATAAGAGACAGTTTTTTTTTTTTTTTTTTTTTTTTT…TC
Settings: aptamer strand: ATP DNA aptamer (quencher-CACCTGGGGGAGTATTGCGGAGGAAGG + anchor), 100 nM annealed; ATP concentration: 500 uM; one replicate
Procedure, shortened: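 Cy3-labelled switching-strand clusters on a modified Illumina MiSeq flow-cell were annealed to 100 nM quencher-labelled ATP aptamer and imaged first in selection buffer, then after 15 min with 500 uM ATP at 22 °C. NaOH stripping and re-annealing separated each of five buffer/ATP cycles, and clusters outside 100-1000 RFU were excluded. The fluorescence ratio sums target-cycle Cy3 intensity over buffer-cycle Cy3 intensity per cluster and averages it per switch-domain sequence.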
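Also: ATP exposure 15 min at 22 °C before imaging.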

Sequence	switch fluorescence ratio
ATGTAGGGTA	1.01
ATGTATGCGG	1.09
ATGTCAAGGT	0.989
ATGTCAGTA	0.985
ATGTCGCAGG	0.952
ATGTCGGTGC	0.979
ATGTCGGTTA	0.964
ATGTCTACAT	1.01
ATGTCTCCCT	1.02
ATGTCTGCTC	1
ATGTCTTC	0.994
ATGTGAAGTG	1.02
ATGTGAGCAG	0.981
ATGTGCATA	1.03
ATGTGGACCG	0.991
ATGTGGGAAC	0.995
ATGTGGGCCC	1.02
ATGTGGGGG	1.03
ATGTGTAAAT	1.03
ATGTGTGATC	1.03
ATGTGTGG	1.01
ATGTTCAACC	1.02
ATGTTCACCG	1
ATGTTCCTGC	0.974
ATGTTCGTGC	1.02
ATGTTGACTG	1.13

Sequence	switch fluorescence ratio
ATGTTGGGAG	1.02
ATGTTGTGAT	1.01
ATGTTTAGTA	1.02
ATGTTTCTTG	0.968
ATGTTTGGCA	1.02
ATGTTTTGCG	0.967
ATTAAACGAT	1.05
ATTAAACTAT	0.997
ATTAAATGTC	0.992
ATTAACATGT	0.956
ATTAAGAAGT	0.995
ATTAAGAGGG	0.981
ATTAAGGCAG	1
ATTAAGTCCC	1.02
ATTAATCACT	0.97
ATTAATGG	1
ATTAATGTTC	1.02
ATTACAAATC	1.04
ATTACAGC	1.02
ATTACCTCCC	1.6
ATTACGAAC	1.38
ATTACGGTT	1
ATTACTCGAG	0.992
ATTACTTGTC	0.821
ATTAGAGGAA	0.985
ATTAGATTTA	1.01

Sequence	switch fluorescence ratio
ATTAGCCCTT	1.03
ATTAGCGAAA	1
ATTAGCGCGG	1.01
ATTAGTAACT	1.04
ATTAGTAATC	1.1
ATTAGTACAC	1.09
ATTAGTCCCT	1.03
ATTAGTTAG	1.01
ATTAGTTTGT	0.986
ATTATATACT	1.03
ATTATATTTC	1.06
ATTATCGTCG	0.991
ATTATGAGGC	0.999
ATTATGGGCC	1.03
ATTATTACGC	1.04
ATTATTCTTG	0.978
ATTATTTGT	0.983
ATTCAAGTAT	0.998
ATTCACCATA	1.07
ATTCACGGCG	0.976
ATTCACGTAA	1.36
ATTCAGCGGC	1.04
ATTCAGCTGT	0.989
ATTCATCGGC	1.05
ATTCATCTCA	1
ATTCATTAAG	1.02

Sequence	switch fluorescence ratio
ATTCATTAG	0.962
ATTCCCAGTC	1.05
ATTCCGGCAC	1.3
ATTCCGTCGT	1.08
ATTCCTTTGG	0.971
ATTCGAGGGC	1.02
ATTCGCCCGG	1.14
ATTCGCTTT	0.989
ATTCGGCAGA	0.96
ATTCGGTGGT	1.02
ATTCGTTATA	0.975
ATTCTAATTA	0.999
ATTCTCGGGT	0.987
ATTCTCTCGT	0.951
ATTCTTGGTC	0.984
ATTCTTTGCG	0.957
ATTGACGACG	1.05
ATTGAGAGGT	1.03
ATTGAGCCA	1.08
ATTGAGTGCC	1.01
ATTGATTGCC	1.01
ATTGCAACAA	1.08
ATTGCATGGG	1.01
ATTGCCCTGG	1.04
ATTGCGGCAA	0.926
ATTGCGTTCG	0.995

Sequence	switch fluorescence ratio
ATTGCTCTAC	1.09
ATTGCTGGCC	1
ATTGCTGTGT	0.997
ATTGGAACGG	1.03
ATTGGAACTC	1.04
ATTGGACAT	0.939
ATTGGAGAAC	1.02
ATTGGCGCGC	0.98
ATTGGGAT	0.999
ATTGGGGTCG	1.06
ATTGGTCAGT	0.924
ATTGGTGATC	0.996
ATTGGTGGAC	0.989
ATTGGTGGCA	1.04
ATTGTACATG	0.971
ATTGTAGGCC	1.05
ATTGTCAGTG	0.997
ATTGTCATTT	0.953
ATTGTCCCGC	1.06
ATTGTCGCTT	1.01
ATTGTCTTG	0.969
ATTGTGTGG	0.948
ATTGTGTGTC	0.909
ATTGTTTATG	1.01
ATTTAACCGG	1.01
ATTTAACGTA	1.07

Sequence	switch fluorescence ratio
ATTTAACTGG	1.03
ATTTAGACA	1
ATTTAGACAT	0.997
ATTTAGGGAA	1.04
ATTTAGTGT	0.998
ATTTATTAGC	1.03
ATTTATTCGT	0.974
ATTTCAGAGT	0.999
ATTTCATTAA	0.997
ATTTCATTGC	0.99
ATTTCCGCGT	1.33
ATTTCGCCGG	0.996
ATTTCGCGTA	1.01
ATTTCGTAGA	1.02
ATTTCTCTGA	0.986
ATTTGAGGCG	1.02
ATTTGCGTGT	0.995
ATTTGCTGTA	0.992
ATTTGGAGAA	1.01
ATTTGGAGGT	0.961
ATTTGGGCT	1.02
ATTTGTCAGC	1.02
ATTTGTGGGT	0.972
ATTTTAAAT	1.01
ATTTTACTGT	1.03
ATTTTCGGAA	1.01

Sequence	switch fluorescence ratio
ATTTTCTCG	0.961
ATTTTGCCAG	0.965
ATTTTGCCCT	0.998
ATTTTGCGTA	0.985
ATTTTGGACA	1.03
ATTTTGGC	1.3
ATTTTGGTAC	1.02
ATTTTGTGAC	1.02
ATTTTTACGA	1.01
ATTTTTGTAT	0.988
CAAAAACACA	1.19
CAAAAATCTA	0.982
CAAAACCGGA	1.07
CAAAACGGTA	1.03
CAAAACTAGG	1.03
CAAAACTGTT	1.09
CAAAAGCGGA	0.962
CAAAAGTTTT	0.95
CAAAATGGAT	0.993
CAAACACGTC	0.965
CAAACGAC	1.16
CAAACTACCC	1.23
CAAACTTCT	1.01
CAAAGACCAC	0.972
CAAAGACGAG	0.987
CAAAGCCAGC	1.03

Sequence	switch fluorescence ratio
CAAAGCCGC	1.11
CAAAGCTAGG	1.01
CAAAGGAATA	0.977
CAAAGGCAGA	1.03
CAAAGGTAGG	1.03
CAAAGTATCC	0.964
CAAAGTCCAA	1.02
CAAAGTTGCC	1.02
CAAAGTTGTG	0.981
CAAAGTTTTT	1.07
CAAATAGCGT	0.991
CAAATCCATA	0.995
CAAATGACA	0.991
CAAATGAGAG	1.03
CAAATGATC	1.05
CAAATGGCG	1.01
CAAATGGGTA	0.982
CAAATTAATT	1.01
CAAATTATGC	1.07
